Reference: PubChem BioAssay AID485294 (National Center for Advancing Translational Sciences (NCATS), 2010)
Out of some 370,000 compounds screened, about 150 (0.041%) were called active. Inconclusive means that the source gave no clear call. Such entries were picked first, then a sample of the others. Calls follow the shape of the dose curve; as a rule, active = well fitted inhibition curve with a large enough effect; inconclusive = small, poorly fitted or top-dose-only effect; inactive = flat fitted curve, though single readings scatter. No potency is given beside an inconclusive call; the fits are too rough.

What follows are compounds tested against Beta-lactamase (Escherichia coli (strain K12)) (UniProt P00811) (assay: qHTS Inhibitors of AmpC Beta-Lactamase (assay with detergent)). Conditions: AmpC hydrolysis of nitrocefin, absorbance 480 nm, 0.01% Triton; activity change, negative = inhibition: at 114 µM (top of the series).
Chain of UniProt P00811 (P00811 whole entry, looked up): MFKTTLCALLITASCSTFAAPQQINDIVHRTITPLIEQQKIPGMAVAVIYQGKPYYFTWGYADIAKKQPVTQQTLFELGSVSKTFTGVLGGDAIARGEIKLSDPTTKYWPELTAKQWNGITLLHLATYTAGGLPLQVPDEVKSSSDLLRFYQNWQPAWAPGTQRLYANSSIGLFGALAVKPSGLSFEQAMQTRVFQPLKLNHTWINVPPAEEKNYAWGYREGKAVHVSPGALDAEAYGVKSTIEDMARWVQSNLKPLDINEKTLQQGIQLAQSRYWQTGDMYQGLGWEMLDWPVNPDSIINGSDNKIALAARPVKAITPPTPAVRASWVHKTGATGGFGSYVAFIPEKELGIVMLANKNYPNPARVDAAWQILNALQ
Outline: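 AmpC (5.3 nM in the dispensed reagent) in 20 mM phosphate pH 7.0 with 0.01% (detergent screen) or 0.0001% Triton X-100 was preincubated with compounds for 15 min at room temperature. Nitrocefin was then added from an 800 uM solution, and hydrolysis was followed at 480 nm.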
Also: nearly all actives have a fitted effect of over 25% in size.
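For activity change, negative = inhibition in this document: 0% = no-compound wells and -100% = no-enzyme wells.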
Potency is read from the fitted curve at half-maximal effect; tags tell the direction and shape of the fitted curve.

Structure (SMILES) | Potency | activity change, negative = inhibition
CCc1ccc(OCC(=O)Nc2c(C(=O)c3ccc(Br)cc3)oc3ccccc23)cc1 | inactive | –
CCOc1ccc(C(=O)N/N=C/c2cc([N+](=O)[O-])cs2)cc1 | inactive | –
COc1cccc2c1OCC(C(=O)O)C2 (centres undefined) | inactive | –
CCOc1cc(N2CCOCC2)c(OCC)cc1NC(=O)CSc1nccc(C)n1 | inconclusive [inhibitor, full curve, poor fit] | –
Cc1ccc(/C=N/NC(=O)c2cc(-c3ccc(C)o3)[nH]n2)cc1 | inconclusive [inhibitor, full curve] | –
O=C1[C@@H]2C(c3cccnc3)=NO[C@@H]2C(=O)N1c1ccc(Br)cc1 | inactive | –
Cc1ccc2c(c1)C(c1ccncc1)=NNC(c1ccc(C(C)C)cc1)=N2 | inactive | –
CCNC(=O)CC1C(=O)N(c2ccc(C)cc2)C(=O)N1CCc1ccc(OC)c(OC)c1 (centres undefined) | inconclusive [inhibitor, full curve, poor fit] | –
COc1ccc2nc(NC3=NCN(CC4CCCO4)CN3)nc(C)c2c1 (centres undefined) | inconclusive [inhibitor, partial curve, poor fit] | –
O=C(CCNS(=O)(=O)c1ccccc1F)N1CCN(S(=O)(=O)c2cccc(F)c2)CC1 | inconclusive [inhibitor, full curve, poor fit] | –
CC(C)c1ccc(CC(C)C2C3=C(CCCC3=O)OC3=C2C(=O)CCC3)cc1 (centres undefined) | inconclusive [inhibitor, full curve] | –
CCOc1cc(/C=N/NC(=O)c2c(-c3ccccc3)noc2C)ccc1O | inactive | –
CN(c1ccc(OCC(=O)N2CCN(c3ccc(F)cc3)CC2)cc1)S(=O)(=O)c1cccs1 | inactive | –
COc1ccc(CCNC(=O)Cc2ccc(NC3=NC4CS(=O)(=O)CC4S3)cc2)c(OC)c1 (centres undefined) | inconclusive [inhibitor, partial curve, poor fit] | –
CCCCCNC1=CC(=O)CC(c2ccccc2)C1 (centres undefined) | inconclusive [inhibitor, full curve, poor fit] | –
Cc1cc(N2CCCCC2)n2ncc(-c3ccc(Cl)cc3)c2n1 | inconclusive [inhibitor, full curve] | –
Cc1cc(/C=C(\C#N)C(=O)NC2CCCCCC2)c(C)[nH]1 | inconclusive [inhibitor, full curve, poor fit] | –
Cc1ccc2[nH]c(=O)c(CN(CCCO)S(=O)(=O)c3cccc4nsnc34)cc2c1 | inconclusive [inhibitor, full curve, poor fit] | –
CCOc1ccc(-c2nnc3ccc(SCC(=O)N4CCCCC4)nn23)cc1 | inconclusive [inhibitor, full curve] | –
c1ccc2c(c1)[nH]c1c(N3CCSCC3)ncnc12 | inactive | –
COC(=O)c1ccc(NC(=O)C(C)N2Cc3ccccc3C2=O)cc1 (centres undefined) | inactive | –
O=C(Nc1ccc(F)cc1)c1ccc2[nH]c(=O)c(=O)[nH]c2c1 | inconclusive [inhibitor, single point] | –
Cc1ccccc1NC(=O)/C(C#N)=C/c1ccccc1C(F)(F)F | inactive | –

Structure (SMILES) | Potency | activity change, negative = inhibition
O=C1NC(=S)NC(=O)C1=Cc1ccc2c(c1)CCN2CCCCl | inconclusive [inhibitor, single point] | –
CCCNC(=S)Nc1ccc(CC(=O)OC)cc1 | inactive | –
CCn1c(SCC(=O)N(C)Cc2ccc(OC)c(F)c2)nc2cc(S(N)(=O)=O)ccc21 | – | inconclusive: -15% [inhibitor]
Cc1cccc(CNCc2ccccc2)c1 | inconclusive [inhibitor, full curve, poor fit] | –
Cc1ccc(C(=O)c2sc3nc4c(cc3c2N)CCC4)cc1 | inactive | –
CN(CC(=O)N1CCCCC1)S(=O)(=O)c1cccc2cccnc12 | inconclusive [inhibitor, full curve] | –
O=C(NC(NC(=S)Nc1ccccc1O)C(Cl)(Cl)Cl)c1ccco1 (centres undefined) | inactive | –
CC1(c2cccc(Br)c2)NC(=O)NC1=O (centres undefined) | inconclusive [inhibitor, single point] | –
COc1ccccc1CCNC(=O)C(C)n1nc(C)c2c(C)n(-c3ccccc3)nc2c1=O (centres undefined) | inconclusive [inhibitor, partial curve, poor fit] | –
COc1ccc(-c2nc3n(c2C)CCC3)cc1 | inactive | –
O=C(NCc1cccnc1)c1ccc2c(=O)n(CCCN3CCCC3=O)c(=S)[nH]c2c1 | inconclusive [inhibitor, full curve, poor fit] | –
COc1ccccc1N1CCN(C(=O)CCCn2c(=O)[nH]c3ccsc3c2=O)CC1 | inconclusive [inhibitor, full curve, poor fit] | –
Cc1cc(C)c2nc(SCC(=O)NCCC3=CCCCC3)cc(C)c2c1 | inactive | –
CCCC1CC(C)(c2csc(Nc3ccc(OCC)cc3)n2)OC1=O (centres undefined) | inconclusive [inhibitor, partial curve, poor fit] | –
CC1CCCN(S(=O)(=O)c2ccc(S(=O)(=O)N3CCCN(Cc4ccccc4)C3)cc2)C1 (centres undefined) | inconclusive [inhibitor, full curve, poor fit] | –
CCC(=O)c1ccc(OCC(=O)Nc2ccc(N3CCOCC3)cc2N2CCOCC2)cc1 | inactive | –
CN1CCN(CCCNC(=O)c2cc3c(-c4ccc(Cl)cc4)nn(C)c3s2)CC1 | inconclusive [inhibitor, full curve] | –
O=C(C[n+]1cccc(CNC(=O)c2ccc(OC(F)F)cc2)c1)c1ccccc1 | inconclusive [inhibitor, full curve, poor fit] | –
O=C(Cn1nc(-c2ccc(Cl)cc2)ccc1=O)NCC1CCCO1 (centres undefined) | inconclusive [inhibitor, full curve, poor fit] | –
O=C(COc1ncnc2sccc12)NC1CCCCC1 | inconclusive [inhibitor, full curve, poor fit] | –
COc1ccc(/C=C/C(=O)c2ccccn2)cc1 | inconclusive [inhibitor, single point] | –
COc1ccc(CN(C)C(=O)c2cc(S(=O)(=O)Nc3ccccc3F)ccc2C)c(OC)c1 | inconclusive [inhibitor, full curve] | –
Nc1cc(C(F)(F)F)ccc1C(=O)O | inconclusive [inhibitor, full curve, poor fit] | –

Structure (SMILES) | Potency | activity change, negative = inhibition
Cc1cccc(N2CCN(C(=O)c3ccc(CNc4c(N5CCC(C)CC5)c(=O)c4=O)cc3)CC2)c1C | inconclusive [inhibitor, single point] | –
Cc1ccccc1C(=O)Nc1nnc(SCC(=O)NC2CC2)s1 | inactive | –
CC(C)Sc1nnc(Nc2ccccc2)s1 | inconclusive [inhibitor, full curve, poor fit] | –
Cc1cccc(CC2S/C(=N/N=C/c3ccco3)N(c3ccccc3)C2=O)c1 (centres undefined) | inconclusive [inhibitor, partial curve, poor fit] | –
COc1ccc(-c2cc3cccc(OC)c3oc2=O)cc1 | inactive | –
N#Cc1c(-c2ccco2)nc(NCC2CCCO2)[nH]c1=O (centres undefined) | inconclusive [inhibitor, full curve] | –
CN(C)c1oc(-c2ccc(OCc3ccc(Cl)cc3)cc2)nc1C#N | inconclusive [inhibitor, full curve, poor fit] | –
O=S(=O)(c1ccc(Br)cc1)c1cnc2ccccc2n1 | inactive | –
Cc1ccc2nc(Cl)c(C3CC(c4cccs4)=NN3C(=O)CCC(=O)O)cc2c1 (centres undefined) | inconclusive [inhibitor, partial curve, poor fit] | –
COc1ccc(NC(=O)Nc2ccc(Cc3ccncc3)cc2)c(OC)c1 | inconclusive [inhibitor, partial curve] | –
COCC(=O)NCCc1nc2ccccc2[nH]1 | inconclusive [inhibitor, full curve] | –
COc1ccc(NC(=O)CNC(=O)Cn2ccc3ccccc3c2=O)c(OC)c1 | inconclusive [inhibitor, partial curve] | –
CCOc1ccccc1Nc1nc(-c2sc(NC(=O)c3ccccc3)nc2C)cs1 | inactive | –
O=C1OC(CN2CCOCC2)CN1N=Cc1ccc([N+](=O)[O-])o1 (centres undefined) | inconclusive [inhibitor, full curve, poor fit] | –
CCOc1ccc(C2C=C(c3ccc(F)cc3)Nc3ncnn32)cc1 (centres undefined) | inactive | –
CCCCCOc1ccc(NC(=O)C(=O)NCCC2=CCCCC2)cc1 | inconclusive [inhibitor, full curve, poor fit] | –
O=C(COc1ccccc1)NC1CCCCCCC1 | inactive | –
CCOc1ccc(CCNC(=O)COC(=O)Cc2ccc(OC)c(OC)c2)cc1OCC | inconclusive [inhibitor, full curve, poor fit] | –
COc1cccc(NC(=O)C2CCN(Cc3cnn(-c4ccccc4)c3-n3cccc3)CC2)c1 | inconclusive [inhibitor, partial curve, poor fit] | –
CCN(CC)c1ccc(NC(=O)c2cccc(F)c2)c(C)c1 | inconclusive [inhibitor, full curve, poor fit] | –
N#Cc1nc(-c2cccs2)oc1N1CCN(Cc2ccccc2)CC1 | inconclusive [inhibitor, single point] | –
O=C(NN1CCOCC1)c1ccc(Cl)c([N+](=O)[O-])c1 | inconclusive [inhibitor, full curve, poor fit] | –
N#CCCN1CCN(C(=S)c2ccc(-c3ccc(Cl)c(Cl)c3)o2)CC1 | inconclusive [inhibitor, full curve, poor fit] | –
